Of roughly 21,000 targets only a part is listed; those with the largest changes were picked by preference.
The targets below were run with CC1Cc2ccccc2N1C(=O)C1CCCN(C1)C(=O)CCl (mixture of isomers) [TRIM25 ligand 11 (diastereomer mixture)] (assay: probe-labelled cysteine peptide fold change vs DMSO (competition) (log2 fold change); higher = less target engagement (more negative = stronger competition)). Details: 10 µM; THP-1; incubation time: 4 h.
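Further: competitive chemoproteomic profiling in live THP-1 cells with an iodoacetamide desthiobiotin (IA-DTB) probe, comparing probe-labelled peptide intensities in compound-treated cells against DMSO-treated controls.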

UniProt O75865, sequence (O75865 whole entry): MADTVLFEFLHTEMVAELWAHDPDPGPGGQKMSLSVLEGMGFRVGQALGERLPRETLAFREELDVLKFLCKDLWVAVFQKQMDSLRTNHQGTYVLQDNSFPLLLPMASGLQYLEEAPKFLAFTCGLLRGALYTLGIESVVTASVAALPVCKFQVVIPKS
UniProt Q14258, sequence (Q14258 whole entry, looked up): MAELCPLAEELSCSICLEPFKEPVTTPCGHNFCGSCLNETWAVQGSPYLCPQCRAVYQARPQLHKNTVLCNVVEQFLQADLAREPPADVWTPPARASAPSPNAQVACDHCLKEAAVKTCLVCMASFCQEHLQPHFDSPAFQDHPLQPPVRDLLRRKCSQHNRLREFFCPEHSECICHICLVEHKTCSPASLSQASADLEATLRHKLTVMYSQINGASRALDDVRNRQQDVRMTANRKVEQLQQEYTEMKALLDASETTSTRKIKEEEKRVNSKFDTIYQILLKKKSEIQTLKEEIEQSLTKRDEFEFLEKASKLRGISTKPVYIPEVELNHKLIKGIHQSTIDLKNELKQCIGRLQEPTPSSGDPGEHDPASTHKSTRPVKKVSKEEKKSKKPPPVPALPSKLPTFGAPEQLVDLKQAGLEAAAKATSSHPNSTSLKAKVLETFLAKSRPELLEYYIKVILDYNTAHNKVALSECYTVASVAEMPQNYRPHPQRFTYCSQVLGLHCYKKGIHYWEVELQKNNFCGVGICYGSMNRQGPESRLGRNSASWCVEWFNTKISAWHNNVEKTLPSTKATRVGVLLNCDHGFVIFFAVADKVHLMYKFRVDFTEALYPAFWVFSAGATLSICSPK
UniProt Q9BTW9, sequence (Q9BTW9 whole entry, looked up): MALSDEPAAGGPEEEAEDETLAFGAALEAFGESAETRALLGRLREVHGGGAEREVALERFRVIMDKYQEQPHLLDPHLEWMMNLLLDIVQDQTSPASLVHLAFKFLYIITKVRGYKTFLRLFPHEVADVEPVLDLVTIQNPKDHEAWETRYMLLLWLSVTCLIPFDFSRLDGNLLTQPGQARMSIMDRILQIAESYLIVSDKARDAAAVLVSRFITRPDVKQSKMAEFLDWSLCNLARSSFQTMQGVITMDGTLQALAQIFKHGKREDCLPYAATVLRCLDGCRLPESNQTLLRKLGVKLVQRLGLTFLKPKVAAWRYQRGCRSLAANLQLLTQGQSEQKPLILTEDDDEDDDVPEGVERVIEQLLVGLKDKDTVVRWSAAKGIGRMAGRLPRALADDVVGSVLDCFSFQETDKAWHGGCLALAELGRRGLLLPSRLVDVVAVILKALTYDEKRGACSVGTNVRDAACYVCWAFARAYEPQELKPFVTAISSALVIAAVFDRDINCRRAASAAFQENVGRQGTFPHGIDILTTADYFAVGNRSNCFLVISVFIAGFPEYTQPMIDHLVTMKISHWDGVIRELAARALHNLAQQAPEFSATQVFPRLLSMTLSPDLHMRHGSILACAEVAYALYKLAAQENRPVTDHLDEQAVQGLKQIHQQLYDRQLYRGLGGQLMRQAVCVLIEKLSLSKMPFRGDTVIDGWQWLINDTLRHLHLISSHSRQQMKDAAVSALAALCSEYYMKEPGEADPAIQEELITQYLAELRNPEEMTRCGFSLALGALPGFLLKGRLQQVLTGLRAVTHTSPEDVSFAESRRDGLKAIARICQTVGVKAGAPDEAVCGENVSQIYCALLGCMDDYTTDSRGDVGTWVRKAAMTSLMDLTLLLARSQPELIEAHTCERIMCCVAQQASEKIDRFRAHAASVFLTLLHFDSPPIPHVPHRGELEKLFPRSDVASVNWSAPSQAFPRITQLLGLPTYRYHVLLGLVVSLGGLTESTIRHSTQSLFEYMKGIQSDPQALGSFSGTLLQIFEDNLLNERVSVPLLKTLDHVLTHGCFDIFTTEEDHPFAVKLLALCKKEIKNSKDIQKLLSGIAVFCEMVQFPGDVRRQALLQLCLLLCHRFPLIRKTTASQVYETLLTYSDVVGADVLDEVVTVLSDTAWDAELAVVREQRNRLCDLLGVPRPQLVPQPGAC
UniProt Q12788, sequence (Q12788 whole entry, looked up): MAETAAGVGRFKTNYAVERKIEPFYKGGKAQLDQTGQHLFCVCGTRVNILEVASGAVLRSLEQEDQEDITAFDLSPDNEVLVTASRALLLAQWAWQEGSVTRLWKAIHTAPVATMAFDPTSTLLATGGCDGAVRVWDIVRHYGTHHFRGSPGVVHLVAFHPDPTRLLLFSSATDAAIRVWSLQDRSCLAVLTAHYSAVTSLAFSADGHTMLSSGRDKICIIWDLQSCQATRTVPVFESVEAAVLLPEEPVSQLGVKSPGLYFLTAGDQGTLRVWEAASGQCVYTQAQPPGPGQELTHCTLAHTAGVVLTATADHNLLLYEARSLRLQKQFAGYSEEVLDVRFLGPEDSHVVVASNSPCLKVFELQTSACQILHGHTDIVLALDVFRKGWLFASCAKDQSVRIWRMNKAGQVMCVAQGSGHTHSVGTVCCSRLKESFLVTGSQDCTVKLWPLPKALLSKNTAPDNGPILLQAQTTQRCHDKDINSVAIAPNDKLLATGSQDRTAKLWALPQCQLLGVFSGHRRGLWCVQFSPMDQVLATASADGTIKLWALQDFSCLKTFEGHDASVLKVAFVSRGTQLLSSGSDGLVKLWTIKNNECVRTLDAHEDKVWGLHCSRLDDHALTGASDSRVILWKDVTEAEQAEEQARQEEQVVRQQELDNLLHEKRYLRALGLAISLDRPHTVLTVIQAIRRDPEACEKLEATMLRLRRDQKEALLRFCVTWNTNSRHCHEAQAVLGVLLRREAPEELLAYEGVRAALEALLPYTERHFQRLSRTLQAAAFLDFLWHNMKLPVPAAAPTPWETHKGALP
UniProt Q9NUL3, sequence (Q9NUL3 whole entry): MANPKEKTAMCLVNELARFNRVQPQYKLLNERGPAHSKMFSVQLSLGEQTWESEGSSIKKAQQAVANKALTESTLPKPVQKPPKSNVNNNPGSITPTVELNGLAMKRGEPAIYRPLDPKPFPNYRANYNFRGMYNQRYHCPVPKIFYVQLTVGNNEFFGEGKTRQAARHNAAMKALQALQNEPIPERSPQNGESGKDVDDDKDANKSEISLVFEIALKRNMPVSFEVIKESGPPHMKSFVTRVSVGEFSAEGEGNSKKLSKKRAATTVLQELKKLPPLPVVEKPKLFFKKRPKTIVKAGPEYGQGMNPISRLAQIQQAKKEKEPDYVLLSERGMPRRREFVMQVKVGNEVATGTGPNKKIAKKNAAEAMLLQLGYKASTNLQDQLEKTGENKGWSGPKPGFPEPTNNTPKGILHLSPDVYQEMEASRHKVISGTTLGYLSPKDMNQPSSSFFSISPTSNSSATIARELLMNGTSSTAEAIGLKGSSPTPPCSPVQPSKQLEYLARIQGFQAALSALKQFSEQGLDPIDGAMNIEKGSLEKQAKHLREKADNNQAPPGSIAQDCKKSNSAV
UniProt Q15813, sequence (Q15813 whole entry, looked up): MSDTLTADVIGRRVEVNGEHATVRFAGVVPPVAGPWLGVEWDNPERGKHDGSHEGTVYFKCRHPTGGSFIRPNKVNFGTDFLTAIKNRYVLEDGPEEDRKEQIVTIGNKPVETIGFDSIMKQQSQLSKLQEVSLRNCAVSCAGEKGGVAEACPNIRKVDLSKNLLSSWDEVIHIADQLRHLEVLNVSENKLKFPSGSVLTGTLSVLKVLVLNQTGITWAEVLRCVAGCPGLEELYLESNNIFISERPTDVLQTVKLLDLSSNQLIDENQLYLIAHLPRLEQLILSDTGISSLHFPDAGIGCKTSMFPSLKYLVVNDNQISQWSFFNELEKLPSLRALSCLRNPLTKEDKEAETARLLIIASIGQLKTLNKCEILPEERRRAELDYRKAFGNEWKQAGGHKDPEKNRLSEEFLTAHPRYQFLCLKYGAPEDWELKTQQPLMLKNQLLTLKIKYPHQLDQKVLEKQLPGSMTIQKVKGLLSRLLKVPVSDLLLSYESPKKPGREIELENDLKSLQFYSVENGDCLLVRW
UniProt P49842, sequence (P49842 whole entry): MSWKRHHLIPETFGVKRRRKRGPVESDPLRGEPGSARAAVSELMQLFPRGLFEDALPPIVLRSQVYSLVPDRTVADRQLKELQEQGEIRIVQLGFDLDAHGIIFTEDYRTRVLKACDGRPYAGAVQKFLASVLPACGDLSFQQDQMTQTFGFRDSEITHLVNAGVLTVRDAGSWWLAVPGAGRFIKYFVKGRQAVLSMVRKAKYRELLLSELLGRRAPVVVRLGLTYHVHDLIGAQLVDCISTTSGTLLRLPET
UniProt Q96SB4, sequence (Q96SB4 whole entry, looked up): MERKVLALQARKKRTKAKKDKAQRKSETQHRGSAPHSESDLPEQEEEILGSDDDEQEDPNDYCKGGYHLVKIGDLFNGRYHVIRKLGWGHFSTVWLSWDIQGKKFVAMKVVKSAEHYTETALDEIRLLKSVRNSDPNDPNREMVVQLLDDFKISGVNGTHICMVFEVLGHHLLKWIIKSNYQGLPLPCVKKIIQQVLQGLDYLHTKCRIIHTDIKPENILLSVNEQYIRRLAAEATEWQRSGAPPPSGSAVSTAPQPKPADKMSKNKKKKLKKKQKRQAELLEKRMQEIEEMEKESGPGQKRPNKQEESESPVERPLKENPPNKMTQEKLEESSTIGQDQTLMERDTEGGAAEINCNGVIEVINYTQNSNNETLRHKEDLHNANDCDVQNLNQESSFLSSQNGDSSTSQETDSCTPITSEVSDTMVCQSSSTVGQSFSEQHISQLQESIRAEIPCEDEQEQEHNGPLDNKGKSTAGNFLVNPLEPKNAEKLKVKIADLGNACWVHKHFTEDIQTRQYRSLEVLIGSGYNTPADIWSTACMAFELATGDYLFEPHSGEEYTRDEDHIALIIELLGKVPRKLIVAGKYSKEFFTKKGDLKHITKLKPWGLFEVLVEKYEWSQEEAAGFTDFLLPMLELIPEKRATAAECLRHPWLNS
UniProt Q9H496, sequence (Q9H496 whole entry, looked up): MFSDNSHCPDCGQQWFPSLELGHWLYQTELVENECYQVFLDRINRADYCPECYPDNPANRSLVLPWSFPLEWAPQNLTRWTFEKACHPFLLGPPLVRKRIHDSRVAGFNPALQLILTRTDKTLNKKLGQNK

Target	probe-labelled cysteine peptide fold change
TANC1_Q9C0D5_1808_CQIPVHSQENR (UniProt Q9C0D5)	0.584
SUGT1_Q9Y2Z0_154_CQEAQNGSESEVWTHQSK (UniProt Q9Y2Z0)	0.177
TPP2_P29144_197_KYSDPGPVYDCLVWHDGEVWR (UniProt P29144)	-0.249
TBL3_Q12788_511_LWALPQCQLLGVFSGHR (UniProt Q12788)	-0.306
TPP2_P29144_28_ETGAASFLCR (UniProt P29144)	-0.0353
TRIM25_Q14258_127_TCLVCMASFCQEHLQPHFDSPAFQDHPLQPPVR (UniProt Q14258)	0.0645
STK19_P49842_354_LGLTYHVHDLIGAQLVDCISTTSGTLLR (UniProt P49842)	0.00174
TMF1_P82094_518_VQLACK (UniProt P82094)	0.133
TBCD_Q9BTW9_681_QAVCVLIEK (UniProt Q9BTW9)	-0.0775
TANGO6_Q9C0B7_537_AVPSLHSLCQFR (UniProt Q9C0B7)	0.0851
THOC2_Q8NI27_436_DVFNMFCYLGPHLSHDPILFAK (UniProt Q8NI27)	0.0358
SRPK1_Q96SB4_647_RATAAECLR (UniProt Q96SB4)	0.591
TBCE_Q15813_141_NCAVSCAGEK (UniProt Q15813)	-0.0162
STAU2_Q9NUL3_11_TAMCLVNELAR (UniProt Q9NUL3)	-0.112
TRAPPC6A_O75865_124_FLAFTCGLLR (UniProt O75865)	-0.0576

Same assay, conditions: 50 µM; THP-1; incubation time: 4 h

Target	probe-labelled cysteine peptide fold change
TOR1AIP2_Q9H496_86_ACHPFLLGPPLVR (UniProt Q9H496)	0.22
TAF10_Q12962_174_FISDIANDALQHCK (UniProt Q12962)	-0.583
TEP1_Q99973_1468_SWEEAVAAGNSGDPYPMGPFACLVQSLR (UniProt Q99973)	-0.491
SUPT16H_Q9Y5B9_273_NHMHFGAITCAMGIR (UniProt Q9Y5B9)	-0.0183
SRPRB_Q9Y5M8_246_EFEFSQLPLKVEFLECSAK (UniProt Q9Y5M8)	-0.365
TOR4A_Q9NXH8_62_LLQPGGGPDVGTGAPRPGCSPR (UniProt Q9NXH8)	-0.0981
TIPRL_O75663_87_VACAEEWQESR (UniProt O75663)	-0.142
SRPRB_Q9Y5M8_179_NTPSFLIACNK (UniProt Q9Y5M8)	0.108
TANC1_Q9C0D5_741_VVPVSLSELYLLQCNMK (UniProt Q9C0D5)	-0.179
TM9SF2_Q99805_250_HTHIDKPDCSGPPMDISNK (UniProt Q99805)	-0.239
SUGT1_Q9Y2Z0_88_GICEYHEK (UniProt Q9Y2Z0)	0.0208
TANK_Q92844_318_TKPSNLVNTCIR (UniProt Q92844)	-0.415
SUCLG1_P53597_172+181_LIGPNCPGVINPGECK (UniProt P53597)	0.0643
SRRT_Q9BXP5_490_ECELSPGVNR (UniProt Q9BXP5)	0.0463
TELO2_Q9Y4R8_813_SWLADVAEKDPDEDCR (UniProt Q9Y4R8)	0.233
TRIM56_Q9BRZ2_21_VSHGSSPSLLEALSSDFLACK (UniProt Q9BRZ2)	-0.0675

Target	probe-labelled cysteine peptide fold change
TANC1_Q9C0D5_1808_CQIPVHSQENR (UniProt Q9C0D5)	-0.28
SUGT1_Q9Y2Z0_154_CQEAQNGSESEVWTHQSK (UniProt Q9Y2Z0)	-0.0987
TPP2_P29144_197_KYSDPGPVYDCLVWHDGEVWR (UniProt P29144)	-0.173
TBL3_Q12788_511_LWALPQCQLLGVFSGHR (UniProt Q12788)	0.0833
TPP2_P29144_28_ETGAASFLCR (UniProt P29144)	0.0865
TRIM25_Q14258_127_TCLVCMASFCQEHLQPHFDSPAFQDHPLQPPVR (UniProt Q14258)	-0.129
STK19_P49842_354_LGLTYHVHDLIGAQLVDCISTTSGTLLR (UniProt P49842)	-0.0024
TMF1_P82094_518_VQLACK (UniProt P82094)	0.0379
TBCD_Q9BTW9_681_QAVCVLIEK (UniProt Q9BTW9)	0.234
TANGO6_Q9C0B7_537_AVPSLHSLCQFR (UniProt Q9C0B7)	0.453
THOC2_Q8NI27_436_DVFNMFCYLGPHLSHDPILFAK (UniProt Q8NI27)	-0.118
SRPK1_Q96SB4_647_RATAAECLR (UniProt Q96SB4)	0.4
TBCE_Q15813_141_NCAVSCAGEK (UniProt Q15813)	-0.576
STAU2_Q9NUL3_11_TAMCLVNELAR (UniProt Q9NUL3)	-0.0959
TRAPPC6A_O75865_124_FLAFTCGLLR (UniProt O75865)	0.16

From the supplement of paper PMC12067093, “Discovery and optimisation of a covalent ligand for TRIM25 and its application to targeted protein ubiquitination” (Chemical Science, 2025)
